Experimental data reported in the RNAGym collection of RNA variant scans (doi:10.7554/elife.90254).
The source gives no read counts; variants with many changes may rest on few reads.

B1: LINE1-mini (parent)
chain: GGCAGAGCUCAACACAGCGUGGCAAAGUGGCUGUGGCUAGACUGCC

Variants of: B1
Test: self-cleavage, relative activity (ratio to wild type); higher = more cleavage; in vitro, sequencing; the parent is a self-cleaving ribozyme

Variant | self-cleavage
GGAAGAGCACUACACAGCGUGGCAAAGUGGCUGUGGAUAGACUGCC | 0.08
GGAAGAGCACAACACGGCGUGGCAAAGUGGCUGUGGCUAGACUGCC | 0.58
GGAAGAGCACAACACAGCGUGGCAAAGUGGCUGUGGCUAGUCUGCC | 0.04
GGAAGAGCAGAACACAGCGUGGCAAAGUGGCUGUGGCUAGACUGCC | 0.07
GGAAGAGCACAACACAGCGUGACAAAGAGGCUGUGGCUAGACUGAC | 0.18
GGAAGAGCACAACACAGCGUGGCAAAGUGGCUGAGGCUAAACUGCC | 0.51
GGAAGAGCCCAACACAGAGUGGCAAAGUGGCUGUGGCUAGACUGCC | 0.07
GGAAGAGCCCAACACAGCGUGGGAAAGUGGCUGUUGCUAGACUGUC | 0.02
GGAAGAGCCCAACACAUCGUGGCAAAGUGGCUGUGGCUAGACUGCC | 0.05
GGAAGAGCGCAACGCAGCGUGGCAAAGUGGCUGAGGCUAGACUGCC | 0.24
GGAAGAGCGCAAUACAGCGUGGCAAAGUGGCUGAGGCUAGACUGCC | 0.21
GGAAGAGCGCAACACAGGGUGGCAAGGUGGCUGUGGCUAGACUGCC | 0.1
GGAAGAGCGCAACACAGCGUGGCAAAGUGGCUGUGGCUAGACUGCA | 0.04
GGAAGAGCUCAACACAGCGAGGCAAGGUGGCUAUGGCUAGACGGCC | 0.02
GGAAGAGCUCAACACAGCGAGGCAAAGUGGAUGUGGCUAGACUGCC | 0.06
GGAAGAGCUCAACACAGCGAGACAAAGUGGCUGUGGCUAGACUGCC | 0.12
GGAAGAGCUCAACACAGCGAGGCAAAGUGACUGUGGUUAGACUGCC | 0.8
GGAAGAGCUCAACACAGCGCGGCAAAGUGGAUGUGGCUAGAAUGCC | 0.06
GGAAGAGCUCAACACAGCGCGGCAAAGUGGCUGUGGCUAGACUGGC | 0.11

Variant | self-cleavage
GGAAGAGCUCAACACAGCGCGUCAAAGUGGCUGUAGCUAGAAUGCC | 0.05
GGAAGAGCUCAACACAGCGGGGCAAAGUGGCUGUGGCAAGACUGCC | 0.06
GGAAGAGCUCAACACAGCGUGGCAAAGAGGGUGUGGCUAAACUGCC | 0.13
GGAAGAGCUCAACACAGCGUGGCAAAGAGGCUGUUGGUAGAUUGCC | 0.22
GGAAGAGCUCAACACAGCGUGGCAAAGUGGCAGUAGCUUGACUGAA | 0.03
GGAAGAGCUCAACACAGCGUGGCAAAGUGGCAGUAGCAAAACUGCC | 0.09
GGAAGAGCUCAACACAGCGUGGCAAAGUGGCCGUGGAUAGACUGCU | 0.2
GGAAGAGCUCAACACAGCGUGGCAAAGUGGCGGUGGUUACACUGCC | 0.03
GGAAGAGCUCAACACAGCGUGGCAAAGUGGCGGUGGCUAGACUGAC | 0.17
GGAAGAGCUCAACACAGCGUGGCAAAGUGGCUGUGGCGGGACUGCC | 0.05
GGGCGGGCUCAACACAGCGUGGCAAAGUGGGUGUGGCUAGACUGCC | 0.13
GGGCGAGCUCAACACAGCGUGGCAGAGCGGCCGUGGCUACACUGCC | 0.11
GGGCGAGAUCAAAACAGCGUGGCAAAGUGGCUGUAGCUAAACUCCU | 0.04
GGGCGAGUUCAACACGGCGUUGCAAAGUGGCUGUGGCUAGACUGCC | 0.05
GGGCGAGUUCAACACAGCGUGUCAAAGUGGCUGUGGCUAGACUGCC | 0.08
GGGCGAGCUCAAUACAGCGUGGCAAAGUGCUUGUGGCGAGACUGGC | 0.02
GGGCGAGCUCAACAUAGCGUGGCAAAGUGGCUGUGGCUAGACUGCC | 0.03
GGGCUAAGCUCAAACAGCGUGGCAAAGUGGCUGUGGCUAGACUGCC | 0.02
GGGCGAGCUCAACACAGCGUGGCAAAGUGGCUGUGGCUAAACUGCC | 0.02

Variant | self-cleavage
GGGGGAGAGCAACACAGCGUGGCAAAGUGGCUGUGGCUAGACUGCC | 0.3
GGGGGAUCUCAACACAGCGUGGCAAAAGGGCUUUGGCUAGACUGCC | 0.03
GGGUGUGCUCAACACACCGUGGGAAAGUGGCUGUGUCUAGACUGCC | 0.04
GGGUGAGCUCGACACAGCGUGGCAAAAUGGCUGUGGCUAGACUGCC | 0.04
GGGUGAGCUAAACACAGCGUGGCAAAGUGGCUGUGCCUAGACUGCC | 0.04
GGGAGCGCUAAACACAGCGUGGCAAAGUGGCUGUGGCUAGACUGCC | 0.04
GGGAGCUCUCAACACAGCGUGGCAAAGUGGCUGUGGCUAGACUGCC | 0.25
GGGAGCGCUCAACACAGCGUGGCAAAGUUGAUGUGGCUAGACUGCC | 0.03
GGGAGGGCUCGAAACAGCGUGGCAAACUGGCUGUGGCUAGACUGCC | 0.02
GGGAGGGCUGAACUCAGCGUGGCAAAGUGGCUGUGACUAGACUCCC | 0.01
GGGAGGGCUCAACACAGAGUGGCAGAGUGGAUGUCGUUAGACUGCC | 0.01
GGGAGGGCCGAACACAGCGUGGCAAAGUGGCUGUGGCUAGAUUGCC | 0.01
GGGAGGGCUCAACACAGCGUGGCAAAGAUGUUGAUGCUGGACUGCC | 0.02
GGGAGGGCUCAACACAGCGUGGCAAAGUGGCUGUGGCUAGACCGCC | 0.04
GGGAGUGCUCGACACAGCAUGGCAAAGUGGCUGUGUCUAGACUGCC | 0.02
GGGAGUGCUCACCACAGCGUGGCAAAGUGGCCGUGGAUAGACUGCC | 0.02
GGGAGUGCUCAGCACAGCGUGGCAAAGUGACUGUGGCUAGACUGCC | 0.23
GGGAGUGCUCAACCCAGCUUGGCAAAGUGGCUGGGGCUAGACUGCC | 0.11
